In the supplement of paper PMC12217912:
The other results are listed elsewhere or left out. The full chains were built here from the parent and the listed change. Inactive controls read about 0.05.

B1: TEV protease; numbered along this chain (parent)
chain: MGESLFKGPRDYNPISSSICHLTNESDGHTTSLYGIGFGPFIITNKHLFRRNNGTLVVQSLHGVFKVKDTTTLQQHLVDGRDMIIIRMPKDFPPFPQKLKFREPQREERICLVTTNFQTKSMSSMVSDTSCTFPSGDGIFWKHWIQTKDGQCGSPLVSTRDGFIVGIHSASNFTNTNNYFTSVPKNFMELLTNQEAQQWVSGWRLNADSVLWGGHKVFMVKPEEPFQPVKEATQL

Variants of: B1
Assay: raw area under fraction-flipped curve 0-4 h after induction (AUC4h, not background-subtracted), DNA-recorder readout of cleavage of the substrate (dimensionless); higher = more cleavage of the substrate by the protease variant
Conditions: temperature: 34 °C; time window: 0-4 h after rhamnose induction
Procedure: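 In vivo DNA recorder in E. coli TOP10(DE3) ΔrhaA at 34 °C. Each TEVp single-site mutant (parent TEVp 0) is paired with a single-site variant of the 7-mer TEVs (canonical ENLYFQ|S). The substrate sits between flexible linkers in a Bxb1-sfGFP-TEVs-SsrA fusion, so cleavage stabilises Bxb1 and speeds flipping of a recombination array, read by NGS. The value is the raw area under the fraction-flipped curve over 0-4 h after rhamnose induction (AUC4h), with ≥20 reads per time point. It is not background-subtracted; inactive controls average about 0.047.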
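Note: Bxb1 expression induced with 0.2% (w/v) L-rhamnose at OD600 near 0.5, cultures sampled hourly, flipped fraction per protease–substrate barcode pair counted by paired-end Illumina sequencing.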

Variant	area with substrate ENLYFQA	area with substrate ENLYFQC	area with substrate ENLYFQH	area with substrate ENLYFQI	area with substrate ENLYFQL	area with substrate ENLYFQR	area with substrate ENLYFQS	area with substrate ENLYFQY	area with substrate ENLYFQD	area with substrate ENLYFQF	area with substrate ENLYFQG	area with substrate ENLYFQM	area with substrate ENLYFQN	area with substrate ENLYFQT	area with substrate ENLYFQV	area with substrate ENLYFQW	area with substrate ENLYFQK	area with substrate ENLYFQQ	area with substrate ENLYFQP	area with substrate ENLYFQE
F38V	0.0546	0.0897	0.0777	0.0577	0.0591	0.0286	0.0938	0.0542	–	–	–	–	–	–	–	–	–	–	–	–
T44M	0.0608	0.059	0.0543	0.0923	0.052	0.0582	0.0667	0.0399	0.064	0.071	0.0715	0.0566	0.0659	0.0527	0.0525	0.0566	–	–	–	–
N45G	0.0821	0.0703	0.0661	0.0547	0.0557	0.0595	0.0926	–	0.0656	–	–	0.0728	0.0526	0.0586	0.0798	0.0456	0.0617	0.0471	–	–
R50N	0.1	–	–	0.0615	–	–	0.109	–	–	–	–	–	–	0.0955	–	–	–	0.0773	–	–
R50W	0.105	–	0.108	–	–	0.07	0.131	0.104	–	0.0971	–	0.104	0.0994	0.0729	–	0.0824	–	–	–	–
R50Y	0.123	0.157	0.071	–	0.0598	–	0.129	–	0.067	–	–	0.124	–	–	–	0.0844	0.0393	–	0.0634	–
V57E	0.13	–	–	–	–	0.0757	0.102	0.0825	–	0.0767	0.11	–	0.0696	–	–	–	–	–	–	–
V57I	0.105	0.114	–	0.051	0.0476	0.055	0.106	0.0782	–	–	–	–	–	–	–	0.071	0.0693	–	–	–
V58G	0.192	–	–	0.0254	–	–	0.0557	0.0476	–	0.0511	–	0.0613	–	–	0.0426	–	–	–	0.0484	–
Q59H	0.101	0.13	0.0783	0.0643	0.0577	0.0613	0.107	–	0.0659	–	0.0813	–	0.0845	0.0635	0.0605	0.0634	0.0696	–	–	–
Q59N	0.0707	0.0963	–	–	–	0.0687	0.0942	0.0738	0.063	–	0.0289	–	–	0.0682	0.0669	0.0645	0.0715	–	0.067	–
L61F	0.107	–	–	–	–	–	0.0934	–	–	0.146	0.0798	0.0848	–	–	–	0.0659	0.0657	–	–	–
F65P	0.052	0.0524	0.0532	–	–	0.0496	0.0493	0.0367	–	–	0.0572	0.0486	0.0412	0.0462	0.0465	0.0601	0.0495	–	0.0412	–
F65Q	0.0873	0.0836	0.0742	0.0488	0.0465	–	0.0906	–	0.0632	–	–	0.0822	–	–	–	0.0769	–	–	–	–
K66E	0.103	–	–	0.0612	0.0552	0.0733	0.109	0.0999	0.0663	–	0.0906	–	0.104	0.065	0.0391	0.0689	–	–	–	–
K66H	0.162	–	–	0.0654	–	–	0.109	0.0876	–	–	0.0905	0.103	0.0935	0.0612	–	0.0575	0.0653	0.0755	–	–

Variant	area with substrate ENLYFQA	area with substrate ENLYFQC	area with substrate ENLYFQH	area with substrate ENLYFQI	area with substrate ENLYFQL	area with substrate ENLYFQR	area with substrate ENLYFQS	area with substrate ENLYFQY	area with substrate ENLYFQD	area with substrate ENLYFQF	area with substrate ENLYFQG	area with substrate ENLYFQM	area with substrate ENLYFQN	area with substrate ENLYFQT	area with substrate ENLYFQV	area with substrate ENLYFQW	area with substrate ENLYFQK	area with substrate ENLYFQQ	area with substrate ENLYFQP	area with substrate ENLYFQE
K66Y	0.0784	0.127	–	0.0587	0.0567	–	0.102	0.0842	0.0658	–	0.0997	0.0914	0.0795	0.0605	–	–	–	–	0.0619	0.0693
D69F	0.0445	0.0827	–	0.0624	–	–	0.0779	–	–	0.0806	0.0737	–	–	0.0294	0.0602	–	–	–	–	–
T70F	0.0652	0.0853	–	–	–	0.0459	0.0794	0.0731	–	–	0.0762	0.0772	0.0586	–	–	–	–	–	–	–
Q75D	0.0578	–	0.0812	–	–	–	0.0598	–	–	0.0685	0.0708	0.0524	0.058	–	0.0481	0.101	–	–	–	0.0507
H76F	0.0765	0.101	0.0807	0.0567	0.0533	0.0429	0.0863	0.0695	0.0498	–	0.0673	0.0542	0.077	0.071	0.0611	–	–	–	0.0519	–
H76T	0.0623	0.0751	–	–	0.0371	0.0558	0.07	–	–	–	–	–	–	0.0523	–	0.0595	0.0686	–	–	–
V78D	0.0702	0.08	–	0.0622	0.045	0.0554	0.0651	0.0547	–	–	0.0656	–	0.0539	0.0553	–	–	0.0527	–	0.0502	–
V78E	0.0727	0.0781	0.0733	–	0.0669	0.0279	0.0721	0.0656	0.0593	–	0.0582	0.0627	0.0588	–	0.0547	–	0.0557	–	–	–
V78N	0.0675	–	–	0.0424	0.0578	–	0.068	–	–	–	–	0.0474	–	0.0641	–	0.0602	0.0637	–	0.0629	–
R81V	0.108	0.124	–	–	0.0507	–	0.098	–	–	0.0705	–	0.0812	0.0737	–	–	–	–	0.062	0.0664	–
I84H	0.0697	0.0561	–	–	0.0664	0.0512	0.0593	0.0266	0.0604	–	–	–	0.0489	0.0536	–	0.0544	0.0604	–	–	0.0611
I85A	0.0606	–	0.0696	0.0558	0.0447	0.0584	0.0684	–	–	–	–	0.0506	0.0668	–	–	0.0445	–	–	–	–
I85H	0.0678	0.0568	–	–	–	0.0527	0.0597	–	0.0488	–	–	0.0723	0.0495	0.0575	–	0.054	0.052	–	–	–
I86C	0.0553	0.096	0.0608	0.0533	0.0441	–	0.091	0.0731	–	0.0722	0.0694	0.075	0.065	0.0624	–	–	–	–	–	0.0645
P89A	0.087	–	0.0548	0.0553	0.0599	0.0767	0.0901	–	–	–	–	–	0.0661	–	0.0544	–	–	–	0.0652	–
P89V	0.0926	–	0.0608	0.0579	–	0.0493	0.0776	0.0624	–	–	–	0.0603	–	0.0475	–	0.0635	0.0668	–	0.041	–
